Laboratory results taken from the supplement of paper PMC4723716.
± gives the uncertainty stated by the source. In all, about 9,900 compounds were measured (“viability index relative to DMSO control”: median about 1, lowest 2% from about 0.85 on). The list shows a part of the results.

Tested on: Plasmodium falciparum NF54 stage V gametocytes
Assay: viability index relative to DMSO control (fraction); higher = less gametocyte killing
Settings: 2.5 µM, incubation time: 72 h
Method in brief: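 Gametocytes (P. falciparum NF54, stage V) were treated with compound at 2.5 µM for 72 hr at 37°C in low oxygen, in serum-free medium at 0.75% gametocytemia and 1.25% hematocrit. Counts of 20–70 µm2 red particles, taken from one field per well after MitoTracker Red CMXRos with saponin, were divided by the plate mean of solvent-only wells. This ratio is the viability index.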

[1] = library set: Broad Institute DOS

Compound | viability index [1] | viability index (library set: Broad Institute Blood Stage)
C/C=C/c1ccc([C@@H]2[C@@H]3CN(S(=O)(=O)c4ccccc4F)C[C@H]2N3)cc1 | 0.904 ± 0.016 | 
C[C@H](CO)N1C[C@H](C)[C@@H](CN(C)Cc2cccnc2)Oc2ncc(-c3ccc(C#N)cc3)cc2C1=O | 1.05 ± 0.034 | 
CC(C)CC#Cc1ccc([C@@H]2[C@H](CO)N3C(=O)CN(C(=O)Nc4cc(F)ccc4F)C[C@@H]23)cc1 | 1.04 ± 0.023 | 
CN1C(=O)c2cc(NC(=O)C3CCOCC3)ccc2OC[C@@H]2O[C@H](CC(=O)NCC3CCCCC3)CC[C@H]21 | 1.07 ± 0.11 | 
CO[C@@H](CN(C)C(=O)c1cc(Cl)cc(Cl)c1)[C@@H](C)CN(C(=O)Nc1ccc(F)cc1)[C@@H](C)CO | 1.04 ± 0.018 | 
COCCNC(=O)c1cc2c(c(-c3cccc(C4=CCCCC4)c3)n1)[C@@H](CCO)N([S@](=O)C(C)(C)C)C2 | 0.982 ± 0.13 | 
CCS(=O)(=O)N1[C@H](CO)[C@H](c2ccc(-c3cccc(F)c3)cc2)[C@@H]1C#N | 1.065 ± 0.0011 | 
CC(C)NC(=O)N(C)C[C@H]1Oc2c(NS(=O)(=O)c3cccs3)cccc2C(=O)N([C@@H](C)CO)C[C@@H]1C | 0.941 ± 0.042 | 
CCC(=O)N1CC(=O)N2[C@H](CO)[C@H](c3ccc(C#CCC(C)C)cc3)[C@@H]2C1 | 0.971 ± 0.027 | 
OC[C@H]1[C@@H](c2ccc(C#Cc3ccccc3F)cc2)[C@H]2CN(CC3CCOCC3)CCCCN21 | 0.938 ± 0.011 | 
CNC[C@@H]1OCCCC[C@@H](C)Oc2ccc(N)cc2C(=O)N([C@@H](C)CO)C[C@H]1C | 1.06 ± 0.032 | 
C/C=C/c1ccc2n(c1=O)C[C@H]1[C@H](CO)[C@@H](C(=O)N[C@@H](C)c3ccccc3)N(C(=O)c3ccccn3)[C@@H]21.C/C=C\c1ccc2n(c1=O)C[C@H]1[C@H](CO)[C@@H](C(=O)N[C@@H](C)c3ccccc3)N(C(=O)c3ccccn3)[C@@H]21 | 1.065 ± 0.0094 | 
CC(C)C#Cc1ccc([C@H]2[C@H](CO)N3C(=O)CN(C(=O)c4ccc5c(c4)OCO5)C[C@@H]23)cc1 | 1.07 ± 0.082 | 
OC[C@@H]1[C@H](c2ccccc2)C2(CN(Cc3ccccc3F)C2)N1Cc1ccccc1F | 1.03 ± 0.043 | 
COc1ccccc1-c1ccc([C@H]2[C@H](C#N)N[C@@H]2CO)cc1 | 1.05 ± 0.026 | 
O=C(C[C@H]1CC[C@H]2[C@@H](COC[C@@H](O)CN2CC2CCOCC2)O1)NCC1CCCCC1 | 0.987 ± 0.03 | 
Cc1ccc(S(=O)(=O)N(C)C[C@@H]2OCCCC[C@H](C)Oc3ccc(NC(=O)c4ccncc4)cc3C(=O)N([C@H](C)CO)C[C@H]2C)cc1 | 1.07 ± 0.018 | 
COc1ccc2c3c([C@@H](CO)N(C[C@]33CCN(CC3)C(=O)c3ccc4OCOc4c3)C(=O)Nc3ccc(F)cc3)n(C)c2c1 | 0.967 ± 0.057 | 
C[C@@H]1CN([C@@H](C)CO)C(=O)c2cccc(N(C)C)c2O[C@@H]1CN(C)C(=O)Nc1ccc(F)cc1 | 0.924 ± 0.016 | 
COc1ccc2c3c([nH]c2c1)[C@H](CO)N(C)C[C@]31CCN(CC1)C(=O)c1ccccc1F | 0.944 ± 0.024 | 
COc1cccc(S(=O)(=O)Nc2ccc3c(c2)[C@@H]2C[C@@H](CC(=O)NC4CCCCC4)O[C@H](CO)[C@@H]2O3)c1 | 1.1 ± 0.021 | 
COc1ccc(-c2ccccc2[C@@H]2[C@@H](CO)N(C(=O)NC(C)C)[C@H]2C#N)cc1 | 1.1 ± 0.063 | 
Cc1noc(C)c1S(=O)(=O)Nc1ccc2c(c1)C(=O)N([C@H](C)CO)C[C@H](C)[C@H](CN(C)C(=O)NC1CCCCC1)O2 | 0.9789 ± 0.0031 | 

Compound | viability index [1] | viability index (library set: Broad Institute Blood Stage)
C[C@@H]1CN([C@H](C)CO)C(=O)c2c(c3ccccc3n2C)-c2ccccc2CO[C@@H]1CN(C)C(=O)[C@H](Cc1ccccc1)N(C)C | 1.04 ± 0.09 | 
O=C(NCC[C@@H]1CC[C@@H](NC(=O)C2CCOCC2)[C@@H](CO)O1)c1cc(Cl)cc(Cl)c1 | 1.01 ± 0.12 | 
C[C@H]1CCCCO[C@H](CN(C)C(=O)Nc2cccc3ccccc23)[C@@H](C)CN([C@@H](C)CO)C(=O)c2cc(NC(=O)CCC(F)(F)F)ccc2O1 | 0.993 ± 0.057 | 
COc1ccccc1S(=O)(=O)N(C)C[C@H]1OCc2ccccc2-c2ccccc2C(=O)N([C@H](C)CO)C[C@@H]1C | 1.009 ± 0.0022 | 
Cc1noc(C)c1S(=O)(=O)N(C)C[C@H]1OCCCC[C@@H](C)Oc2ccc(NC(=O)CCC(F)(F)F)cc2C(=O)N([C@@H](C)CO)C[C@H]1C | 1.02 ± 0.045 | 
COc1ccc2c3c([C@@H](CO)N(C[C@]33CN(C3)C(=O)Nc3ccc(F)cc3)C(=O)c3ccc(F)cc3)n(C)c2c1 | 0.905 ± 0.013 | 
CN1C(=O)c2cc(NS(C)(=O)=O)ccc2OC[C@@H]2O[C@@H](CC(=O)NCc3ccccc3)CC[C@@H]21 | 1.02 ± 0.12 | 
O=C(CC1CC1)N1CC(=O)N2[C@H](CO)[C@H](c3ccc(/C=C/c4ccccc4)cc3)[C@@H]2C1 | 1.056 ± 0.0063 | 
CCNC[C@@H]1[C@H](c2ccccc2)[C@H](CO)N1C(=O)Cc1ccccn1 | 1.03 ± 0.019 | 
CN(C)C(=O)c1ccc(-c2ccc([C@H]3[C@@H]4CN(Cc5cncnc5)C[C@H]3N4)cc2)cc1 | 1.06 ± 0.031 | 
CCN(C[C@@H]1N[C@@H](CO)[C@H]1c1ccccc1)C(=O)c1ccncc1 | 1 ± 0.011 | 
CC(C)COC(=O)N(C)C[C@H]1OCc2ccccc2-c2ccccc2C(=O)N([C@H](C)CO)C[C@H]1C | 0.977 ± 0.015 | 
O=C(Nc1cc(F)ccc1F)N[C@H]1CC[C@H](CC(=O)N2CCc3ccccc3C2)O[C@H]1CO | 1.115 ± 0.0054 | 
CC(C)[C@H]1C/C=C/C[C@@H](C)Oc2ccccc2C(=O)N(C)[C@H](C(C)C)C(=O)N1.CC(C)[C@H]1C/C=C\C[C@@H](C)Oc2ccccc2C(=O)N(C)[C@H](C(C)C)C(=O)N1 | 1.006 ± 0.0079 | 
COc1ccc2c3c([nH]c2c1)[C@@H](CO)N(Cc1ccccc1)C[C@]31CCN(Cc2cncnc2)CC1 | 0.849 ± 0.064 | 
C[C@H]1CN([C@@H](C)CO)C(=O)Cc2cc(NC(=O)c3ccncc3)ccc2O[C@@H]1CN(C)C(=O)Nc1ccc(F)cc1 | 0.932 ± 0.025 | 
C/C=C/c1ccccc1[C@@H]1[C@H](C#N)N(C(=O)CN2CCOCC2)[C@H]1CO | 1.09 ± 0.057 | 
O=C(O)C[C@H]1C=C[C@H](NC(=O)Nc2cc(F)ccc2F)[C@@H](CO)O1 | 1.02 ± 0.017 | 
C/C=C/c1ccccc1[C@@H]1[C@@H](C#N)N(c2nc(CC)cs2)[C@@H]1CO | 1.09 ± 0.21 | 
N#C[C@H]1[C@H](c2ccccc2-c2cccc(F)c2)[C@H](CO)N1C(=O)CN1CCOCC1 | 1.07 ± 0.077 | 
CO[C@@H](CN(C)C(=O)c1ccccc1F)[C@@H](C)CN([C@H](C)CO)S(=O)(=O)c1ccc(F)cc1 | 1.02 ± 0.044 | 
N#C[C@@H]1N[C@H](CO)[C@@H]1c1ccc(C#Cc2ccccc2F)cc1 | 1.11 ± 0.048 | 
O=C(CC(F)(F)F)N1C[C@H]2[C@@H](c3ccccc31)[C@@H](CO)N2C(=O)C1CCCCC1 | 1.03 ± 0.051 | 

Compound | viability index [1] | viability index (library set: Broad Institute Blood Stage)
N#C[C@H]1[C@@H](c2ccc(C3=CCCCC3)cc2)[C@@H](CO)N1C(=O)CN1CCOCC1 | 1.14 ± 0.032 | 
N#Cc1cccc(-c2ccc([C@@H]3[C@@H](CO)N4CCCCN(Cc5ccccc5F)C[C@H]34)cc2)c1 | 0.889 ± 0.028 | 
CC(C)NC(=O)N1CC(=O)N2[C@H](C1)[C@H](c1ccc(/C=C/c3ccccc3)cc1)[C@@H]2CO | 1.01 ± 0.052 | 
CC(C)(C)[S@@](=O)N1Cc2cc(C(=O)NCc3ccccc3F)nc(-c3cccc(-c4cncnc4)c3)c2[C@H]1CCO | 0.801 ± 0.1 | 
COc1ccc2c3c([nH]c2c1)[C@H](CO)NC[C@]31CCN(CC1)C(=O)Nc1ccc2OCOc2c1 |  | 1.01 ± 0.042
COc1ccc2c3c([nH]c2c1)[C@H](CO)N(C[C@]31CN(C1)C(=O)c1ccncc1)C(=O)NC(C)C | 0.97 ± 0.13 | 
CO[C@H]1CC[C@@H]2CCOc3c(C#N)cccc3C(=O)N(C)C[C@@H](OC)[C@@H](C)C(=O)N(C)C[C@H]1O2 | 1.0822 ± 0.00067 | 
CN1c2ccc(-c3ccccc3F)cc2[C@@H]2[C@@H](CCN2C(=O)Nc2cc(F)ccc2F)[C@@H]1CO | 1.08 ± 0.054 | 
CO[C@@H]1CN(C)C(=O)c2cc(NC(C)=O)ccc2OC[C@@H](C)N(C(=O)Cc2ccccn2)C[C@@H]1C | 1.1 ± 0.017 | 
Cc1noc(C)c1NC(=O)Nc1ccc2c(c1)CC(=O)N([C@H](C)CO)C[C@H](C)[C@H](CN(C)Cc1ccc(C(F)(F)F)cc1)O2 | 0.9964 ± 0.0062 | 
CC(C)(C)S(=O)N1Cc2cc(C(=O)NCc3ccc(Oc4ccccc4)cc3)nc(-c3cccc(C#CCC4CCCC4)c3)c2[C@@H]1CCO (stereo partly drawn) | 0.966 ± 0.018 | 
C[C@@H]1CN([C@@H](C)CO)C(=O)c2ccccc2-c2ccccc2CO[C@H]1CN(C)C(=O)Nc1ccnc(N2CCOCC2)c1 | 1.01 ± 0.077 | 
COc1ccc([C@@H]2C/C=C\C[C@@H](c3ccc(F)cc3)NC(=O)CCC(=O)N2)c(OC)c1 | 1.055 ± 0.0078 | 
C[C@@H]1CN([C@H](C)CO)C(=O)c2cc(N(C)C)ccc2O[C@@H](C)CCCCO[C@H]1CN(C)S(=O)(=O)c1ccc(F)cc1 | 1.04 ± 0.14 | 
COc1ccc(CN(C)C[C@@H]2Oc3ccc(NC(=O)Nc4ccc5c(c4)OCO5)cc3CC(=O)N([C@@H](C)CO)C[C@@H]2C)cc1 | 0.927 ± 0.078 | 
COCC(=O)N1[C@H](C#N)[C@H](c2ccccc2C2=CCCC2)[C@H]1CO | 1.14 ± 0.16 | 
CN1C(=O)c2cc(NC(=O)c3ccc(C#N)cc3)ccc2OC[C@H]2O[C@@H](CC(=O)Nc3cc(F)ccc3F)CC[C@@H]21 | 1.13 ± 0.12 | 
COc1ccc2c3c([C@H](CO)N(C)C[C@]33CCN(CC3)C(=O)CN3CCOCC3)n(C)c2c1 | 1.02 ± 0.058 | 
O=C(C1CCCCC1)N1C[C@@H]2N[C@H](C1)[C@H]2c1ccc(-c2ccccc2F)cc1 | 1.08 ± 0.092 | 
C=C(C)C[C@H]1CCn2nncc2COCCNC1=O | 1.02 ± 0.015 | 
CC(C)NC(=O)Nc1ccc2c(c1)C(=O)N([C@H](C)CO)C[C@@H](C)[C@H](CN(C)C(=O)C1CCCCC1)OCCCC[C@H](C)O2 | 1.04 ± 0.024 | 
C[C@@H]1C/C=C/CCNC(=O)[C@@H](Cc2ccccc2)N(C)C(=O)c2ccccc2O1.C[C@@H]1C/C=C\CCNC(=O)[C@@H](Cc2ccccc2)N(C)C(=O)c2ccccc2O1 | 1.007 ± 0.0016 | 
